± gives the standard error. This sample is rich in variants without activity.
B1: glmS ribozyme (parent)
chain: AUAAAAGCGCCAGAACUACAGAAAUGUAGUUGACGAGGAGGAGGUUUAUCGAAUUUUCGGCGGAUGCCUCCAAA

Legend:
Details in all cases: with glucosamine-6-phosphate
glucosamine-6-phosphate [1] = variants of: B1; assay: self-cleavage kobs at 640 uM GlcN6P; higher = faster cleavage; RNA array
Summary of the method: (§1)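 Sequenced MiSeq chips were the platform: E. coli RNA polymerase transcribed barcoded ribozyme variants on them in situ, and a hybridised Cy3 probe tracked these at 37 °C. After glucosamine-6-phosphate (40 μM to 10 mM) in HEPES/KCl/Mg(OAc)2 buffer was flowed in, tiles were imaged over ~14 h. Signals normalised to baseline and to non-cleaving reference variants were reduced to per-tile medians and fit to one- or two-exponential decays to obtain kobs. kcat and KM were derived through weighted Michaelis–Menten fits across concentrations.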

glucosamine-6-phosphate [2] = variants of: B1; assay: self-cleavage kobs at 160 uM GlcN6P; higher = faster cleavage; RNA array
Summary of the method: as §1

glucosamine-6-phosphate [3] = variants of: B1; assay: self-cleavage kobs at 2500 uM GlcN6P; higher = faster cleavage; RNA array
Summary of the method: as §1

glucosamine-6-phosphate [4] = variants of: B1; assay: self-cleavage kobs at 10000 uM GlcN6P; higher = faster cleavage; RNA array
Summary of the method: as §1

Variant	self-cleavage kobs at 640 uM GlcN6P (glucosamine-6-phosphate [1])	self-cleavage kobs at 160 uM GlcN6P (glucosamine-6-phosphate [2])	self-cleavage kobs at 2500 uM GlcN6P (glucosamine-6-phosphate [3])	self-cleavage kobs at 10000 uM GlcN6P (glucosamine-6-phosphate [4])
A15U G43U C67U	< 1e-05 s⁻¹	< 1e-05 s⁻¹	< 1e-05 s⁻¹	
A15G C34A G60C	< 1e-05 s⁻¹			
A14C C50A A52G G63U	< 1e-05 s⁻¹			
C16G U45A C58A	6.95e-05 ± 1.6e-05 s⁻¹		0.000197 ± 3.9e-05 s⁻¹	
A14C C16G G66C	< 1e-05 s⁻¹		< 1e-05 s⁻¹	
A14U A64U	< 1e-05 s⁻¹	< 1e-05 s⁻¹		
C16A G63U C67U	0.000112 ± 4.7e-05 s⁻¹			
A15U A36U C67U	< 1e-05 s⁻¹			
G13U A42U A48U G51A	< 1e-05 s⁻¹			
A15C U31G A39U G44C G60A	< 1e-05 s⁻¹			< 1e-05 s⁻¹
A14C G32A G40U G59C	< 1e-05 s⁻¹			
G13C U31A	7.16e-05 ± 1.3e-05 s⁻¹		0.00017 ± 3.3e-05 s⁻¹	
G13U G29U G37U	< 1e-05 s⁻¹			
C16A G32U G41U U55G U65G	< 1e-05 s⁻¹		< 1e-05 s⁻¹	
G13C A14U	6.86e-05 ± 1.5e-05 s⁻¹		0.000186 ± 3e-05 s⁻¹	0.00025 ± 3.1e-05 s⁻¹
G13U A64U C70G	< 1e-05 s⁻¹			
A14U U49G G51A	< 1e-05 s⁻¹			
A15G C58A C70U	8.95e-05 ± 1.1e-05 s⁻¹	0.000138 ± 2.8e-05 s⁻¹	0.000182 ± 4.8e-05 s⁻¹	0.000281 ± 5.3e-05 s⁻¹
G13U A39U A48U G51A U55G C70A	< 1e-05 s⁻¹			
C16G U31C A48G U65G	< 1e-05 s⁻¹			
A15U G32U C34U C50A	< 1e-05 s⁻¹			
G13U A15G G32A C70G	5.48e-05 ± 1.7e-05 s⁻¹		8.14e-05 ± 1.6e-05 s⁻¹	8.98e-05 ± 1.9e-05 s⁻¹
C16A C34U C61G	< 1e-05 s⁻¹	< 1e-05 s⁻¹	< 1e-05 s⁻¹	
A14U A15C A42C A52U	< 1e-05 s⁻¹			

Variant	self-cleavage kobs at 640 uM GlcN6P (glucosamine-6-phosphate [1])	self-cleavage kobs at 160 uM GlcN6P (glucosamine-6-phosphate [2])	self-cleavage kobs at 2500 uM GlcN6P (glucosamine-6-phosphate [3])	self-cleavage kobs at 10000 uM GlcN6P (glucosamine-6-phosphate [4])
A15C U31G G35U U47A C58U C68U	< 1e-05 s⁻¹			
C16G G29A U65C C68A	< 1e-05 s⁻¹			
A15C G60U	< 1e-05 s⁻¹	< 1e-05 s⁻¹	< 1e-05 s⁻¹	< 1e-05 s⁻¹
A15C U47A U49C U57G G63U U65A U69A	< 1e-05 s⁻¹			
A15G G51C	< 1e-05 s⁻¹	< 1e-05 s⁻¹	< 1e-05 s⁻¹	< 1e-05 s⁻¹
A15U U45C C50G U69G	< 1e-05 s⁻¹		< 1e-05 s⁻¹	
A14C U65A C70U	0.000125 ± 3.2e-05 s⁻¹			
A15G G44C U49G	< 1e-05 s⁻¹			
G13C G35A U55C C68U	< 1e-05 s⁻¹			
G13A U31G G35C	< 1e-05 s⁻¹			
A15G A42C C61U	< 1e-05 s⁻¹			
A15G G40U C70A	0.000328 ± 8e-05 s⁻¹	4.48e-05 ± 1.3e-05 s⁻¹	0.000773 ± 0.00016 s⁻¹	0.000531 ± 0.00014 s⁻¹
G13A U45A U49A	< 1e-05 s⁻¹		< 1e-05 s⁻¹	
C16G A33U A52U C61U C71U	< 1e-05 s⁻¹			
A14C G32C C71U	7.58e-05 ± 2.5e-05 s⁻¹		0.000118 ± 2.6e-05 s⁻¹	0.000332 ± 7.4e-05 s⁻¹
A14C G41A C70U	0.00173 ± 0.00026 s⁻¹		0.00489 ± 0.0012 s⁻¹	0.0111 ± 0.0021 s⁻¹
A14C C70A	5.59e-05 ± 6.8e-06 s⁻¹	4.49e-05 ± 9.3e-06 s⁻¹	9.55e-05 ± 8e-06 s⁻¹	0.000102 ± 9.4e-06 s⁻¹
A15G U31A U47G	0.000471 ± 0.00011 s⁻¹		0.00142 ± 0.0005 s⁻¹	
C16G A52G C58G	< 1e-05 s⁻¹			
A14C G38A A42G	< 1e-05 s⁻¹	< 1e-05 s⁻¹	< 1e-05 s⁻¹	
A15U C50G G66C C71G	7.22e-05 ± 2.8e-05 s⁻¹		9.27e-05 ± 3e-05 s⁻¹	
G13C U31G G40A C68A	< 1e-05 s⁻¹		< 1e-05 s⁻¹	
A14U G37U A39C G41C G51A	< 1e-05 s⁻¹			
A14C G41U G66C	< 1e-05 s⁻¹		< 1e-05 s⁻¹	

Variant	self-cleavage kobs at 640 uM GlcN6P (glucosamine-6-phosphate [1])	self-cleavage kobs at 160 uM GlcN6P (glucosamine-6-phosphate [2])	self-cleavage kobs at 2500 uM GlcN6P (glucosamine-6-phosphate [3])	self-cleavage kobs at 10000 uM GlcN6P (glucosamine-6-phosphate [4])
A14C G43C U46A	< 1e-05 s⁻¹	< 1e-05 s⁻¹	< 1e-05 s⁻¹	
A15G A36U U45G U46G A64G	< 1e-05 s⁻¹			
A15C U30C U31G U69G	0.00017 ± 4.8e-05 s⁻¹			
A15G A36C G41C U47G	< 1e-05 s⁻¹	< 1e-05 s⁻¹	< 1e-05 s⁻¹	
G13U G35U U45G	< 1e-05 s⁻¹			
A15U G43A G59C	< 1e-05 s⁻¹		< 1e-05 s⁻¹	< 1e-05 s⁻¹
C16A U54A C67A	6.57e-05 ± 2.8e-05 s⁻¹	4.32e-05 ± 1.9e-05 s⁻¹	0.000181 ± 4.8e-05 s⁻¹	
A14G A15U A48U U69C	6.32e-05 ± 2.6e-05 s⁻¹			7.49e-05 ± 2e-05 s⁻¹
A15C C70G C71A	6.35e-05 ± 1.7e-05 s⁻¹	4.75e-05 ± 2e-05 s⁻¹		
G13U U57G G60U	< 1e-05 s⁻¹			
G13C G38U	< 1e-05 s⁻¹	< 1e-05 s⁻¹		
G13U A33G A64U	< 1e-05 s⁻¹		< 1e-05 s⁻¹	
C16A C34A U55C G59U G60U	< 1e-05 s⁻¹		< 1e-05 s⁻¹	
C16G A42C A53U	< 1e-05 s⁻¹	< 1e-05 s⁻¹		
C16G G51U G60C	< 1e-05 s⁻¹	< 1e-05 s⁻¹	< 1e-05 s⁻¹	
G13U G60U G62A	< 1e-05 s⁻¹			
G13C G29C G35U A53U	< 1e-05 s⁻¹		< 1e-05 s⁻¹	
A15G C58A U69G	0.000122 ± 3.7e-05 s⁻¹		8.9e-05 ± 2.5e-05 s⁻¹	
A14C A33G A42U C67G	< 1e-05 s⁻¹		< 1e-05 s⁻¹	
A14U G59A G60U	< 1e-05 s⁻¹			
G13C G38C C58G U65G C71G	< 1e-05 s⁻¹			
A15U U54A	0.00262 ± 0.00048 s⁻¹	0.00059 ± 0.00026 s⁻¹	0.00516 ± 0.0014 s⁻¹	
C16U A42C A48U C67A	< 1e-05 s⁻¹	< 1e-05 s⁻¹		
A15U A33G G59U	< 1e-05 s⁻¹		< 1e-05 s⁻¹	

Variant	self-cleavage kobs at 640 uM GlcN6P (glucosamine-6-phosphate [1])	self-cleavage kobs at 160 uM GlcN6P (glucosamine-6-phosphate [2])	self-cleavage kobs at 2500 uM GlcN6P (glucosamine-6-phosphate [3])	self-cleavage kobs at 10000 uM GlcN6P (glucosamine-6-phosphate [4])
A15G U47C U49C A52G C68A	< 1e-05 s⁻¹			
G13U G62U	< 1e-05 s⁻¹		< 1e-05 s⁻¹	
G13C U57C C58A	< 1e-05 s⁻¹			
G13U G41U C61G C71G	< 1e-05 s⁻¹	< 1e-05 s⁻¹		
C16U A33C G38C U45A C67U	< 1e-05 s⁻¹	< 1e-05 s⁻¹		
A14U C16G G38U	< 1e-05 s⁻¹		< 1e-05 s⁻¹	
A15U G38A	< 1e-05 s⁻¹	< 1e-05 s⁻¹		< 1e-05 s⁻¹
A14U U57G C61G	< 1e-05 s⁻¹			
A14G G41U G51U	< 1e-05 s⁻¹	< 1e-05 s⁻¹	< 1e-05 s⁻¹	
A14G G29A G37U	< 1e-05 s⁻¹			
C16G A33U G37U C68G C71U	8.54e-05 ± 3.1e-05 s⁻¹			
C16A A42C U55A	< 1e-05 s⁻¹	< 1e-05 s⁻¹	< 1e-05 s⁻¹	< 1e-05 s⁻¹
A14C G66A C71U	0.000399 ± 9.8e-05 s⁻¹	0.000171 ± 5.4e-05 s⁻¹	0.00114 ± 0.00023 s⁻¹	
A15C G35C C61U	< 1e-05 s⁻¹		< 1e-05 s⁻¹	
A14G C58G U69A	8.05e-05 ± 3.6e-05 s⁻¹	3.98e-05 ± 2e-05 s⁻¹	3.74e-05 ± 1.9e-05 s⁻¹	
A15C G40C	0.000109 ± 9.3e-06 s⁻¹	5.62e-05 ± 7.5e-06 s⁻¹	0.000234 ± 2.4e-05 s⁻¹	0.000343 ± 3.9e-05 s⁻¹
A14U A36U C67U	< 1e-05 s⁻¹			
A15U G40A A42G A64C C70G	< 1e-05 s⁻¹		< 1e-05 s⁻¹	
A14G G29U A52C C68A	0.000113 ± 4.7e-05 s⁻¹	0.000918 ± 0.00046 s⁻¹		
A14C G41C U54G	< 1e-05 s⁻¹			
A14C C58A	3.29e-05 ± 1.1e-05 s⁻¹		0.000102 ± 1.6e-05 s⁻¹	0.000165 ± 1.7e-05 s⁻¹
A14C A36U G38A U69A	7.64e-05 ± 1.8e-05 s⁻¹			
A15G G41U G62U	< 1e-05 s⁻¹	< 1e-05 s⁻¹	< 1e-05 s⁻¹	
G13C U55A U69A	0.00022 ± 7e-05 s⁻¹			

Variant	self-cleavage kobs at 640 uM GlcN6P (glucosamine-6-phosphate [1])	self-cleavage kobs at 160 uM GlcN6P (glucosamine-6-phosphate [2])	self-cleavage kobs at 2500 uM GlcN6P (glucosamine-6-phosphate [3])	self-cleavage kobs at 10000 uM GlcN6P (glucosamine-6-phosphate [4])
C16G A33U G41C C68A	< 1e-05 s⁻¹		< 1e-05 s⁻¹	
A14G A33C A36G G66A	< 1e-05 s⁻¹	< 1e-05 s⁻¹		
A15C A39U A42C C67G	< 1e-05 s⁻¹	< 1e-05 s⁻¹	< 1e-05 s⁻¹	
A14G A33U G44U U47C G63U	< 1e-05 s⁻¹		< 1e-05 s⁻¹	< 1e-05 s⁻¹
A14C G41C C50G G51U A64G	< 1e-05 s⁻¹		< 1e-05 s⁻¹	
A14U U31C G37C	< 1e-05 s⁻¹			
G13U G32U A36U G66A C67U	< 1e-05 s⁻¹		< 1e-05 s⁻¹	
A15U G40A U49C	< 1e-05 s⁻¹		< 1e-05 s⁻¹	
A14U G29U U56G	0.000178 ± 4.1e-05 s⁻¹		0.000206 ± 7.4e-05 s⁻¹	
A14G G32C U45A C70G	< 1e-05 s⁻¹			
C16G G59A	< 1e-05 s⁻¹			
G13C U49A U56G G59U G63U	< 1e-05 s⁻¹		< 1e-05 s⁻¹	
A15G C16U U31G G32A G38U C68A	< 1e-05 s⁻¹	< 1e-05 s⁻¹	< 1e-05 s⁻¹	
A14G U56G U57C	5.18e-05 ± 1.5e-05 s⁻¹	3.78e-05 ± 1.6e-05 s⁻¹	0.000269 ± 8.2e-05 s⁻¹	
C16A A33U G40A	< 1e-05 s⁻¹		< 1e-05 s⁻¹	
A14C G40C	0.000114 ± 1.8e-05 s⁻¹	2.58e-05 ± 1.1e-05 s⁻¹	0.000285 ± 3.3e-05 s⁻¹	0.000533 ± 7.6e-05 s⁻¹
A15U G35C	< 1e-05 s⁻¹	< 1e-05 s⁻¹	< 1e-05 s⁻¹	
A15C C34A G63C C71U	< 1e-05 s⁻¹			
G13U G35A A52U	< 1e-05 s⁻¹			
A15C G35A G41C G60A G62C	< 1e-05 s⁻¹		< 1e-05 s⁻¹	
